PMC11243198, “Identification of Novel GANT61 Analogs with Activity in Hedgehog Functional Assays and GLI1-Dependent Cancer Cells” (Molecules, 2024)
Where “and” joins values, the source holds several entries; their conditions need not be identical. Equal values may be shown once. Read-outs that look alike come from different tables or passages of the source. Values belong to the compound of their own block, whether it stands above or below them.

Columns and labels:
C3H10T1/2 cells = experiment: Cytotoxicity assay (Hoechst 33342 nuclei count) in C3H10T1/2 cells; assay type: cell-based, murine; settings: 20 μM, 5 days, SAG-stimulated
Description: These cells were stimulated with SAG, selected GANT61 analogs added in dose–response, and the effects on cell number determined using the nuclear stain Hoechst 33342 [70].
Cells were plated and treated with SAG (at its EC50 concentration), and compounds were added in dose–response as above. […] For Gli reporter NIH3T3 cells, Hoechst dye was added 24 h after treatment. Cells were incubated with the Hoechst dye for 45 min at 37 °C. Following incubation, cells were washed with (50 μL) PBS (phosphate-buffered saline), fixed with formalin (20 μL), and incubated in the dark at room temperature for 15 min. After fixing the cells, formalin was removed, and 50 μL of PBS added. High-content imaging was performed using a Cellinsight NXT system (Thermo Fisher) at an excitation wavelength of 386 nm. Data were analyzed using GraphPad Prism 9.

[1] = system: Gli-luciferase reporter NIH3T3 cell line; experiment: Gli-luciferase NIH3T3 reporter assay; assay type: cell-based
Description: In these engineered NIH3T3 cells, the gene for firefly luciferase was stably integrated to be under the transcriptional control of Gli-responsive elements.
Gli reporter NIH3T3 cells (BPS Bioscience, catalog# 60409), a stable cell line that contains firefly luciferase gene under the control of Gli-responsive elements, were used to measure Hh pathway activity. Cells were grown in 96-well plates at a density of 25,000 cells/well for 24 h in Thaw Medium 5 (BPS Bioscience). After 24 h, the medium was replaced with fresh assay media (100 μL) using a Biomek®NX (Brea, CA, USA) automated liquid handler. […] To assess inhibition, the GANT61 analogs were added (serial dilutions of 0.098 to 50 μM) using a D300 system, and cells were then incubated at 37 °C for 30 h. Firefly luciferase activity was measured using the One-Step Luciferase Assay, according to vendor’s protocol (BPS Bioscience, catalog # 60690-1). Briefly, One-Step luciferase reagent (100 μL) was added to each well and incubated by shaking for 20 min at room temperature, followed by luminescence detection using a GloMax plate reader (Promega). To account for background luminescence, cell-free control wells were included. The background-subtracted luminescence of cells stimulated with SAG alone was set as 100% luminescence for calculating percent inhibition of the test compounds. […]

[2] = system: Hh pathway in C3H10T1/2 cells; experiment: C3H10T1/2 Hedgehog-responsive cell-based assay, alkaline phosphatase (AP) fluorescence readout; set-up: species or system murine; settings: for EC50: agonist dose response, 5 days, read-out: EC50 of Smo agonist, C3H10T1/2 AP activity

SMILES: CN(C)c1ccccc1CN1CCCN(Cc2ccccc2N(C)C)C1c1ccncc1 [GANT61]
reduction of C3H10T1/2 cell number (C3H10T1/2 cells): 93.5%

SMILES: CC1=C2C[C@H]3[C@@H](CC=C4CC(=O)CC[C@@]43C)[C@@H]2CC[C@]12O[C@@H]1C[C@H](C)CN(CCNC(=O)CCCCCNC(=O)CCc3ccccc3)[C@H]1[C@H]2C [KAAD-cyc, KAAD-cyclopamine, reference compound]
IC50 ([1]; SAG 26 nM, read-out: IC50 of positive control inhibitor, Gli-luciferase NIH3T3): 9 nM and 8.8 nM
IC50 ([2]; read-out: IC50 of positive inhibitor control, C3H10T1/2 AP fluorescence): 6.2 nM and 6 nM

EC50 ([2]; Mus musculus, C3H 10T1/2, 120 h): 500 nM
SMILES: c1ccc2c(Oc3nc(Nc4ccc(N5CCOCC5)cc4)c4ncn(C5CCCCC5)c4n3)cccc2c1 [PUR, Purmorphamine, reference compound]

EC50 [2]: 30 nM
SMILES: CNC1CCC(N(Cc2cccc(-c3ccncc3)c2)C(=O)c2sc3ccccc3c2Cl)CC1 (stereo not drawn) [SAG, reference compound]
EC50 ([1]; agonist dose response, 30 h): 26 nM
